Assay results published in PMC4336329 (PLoS ONE, 2015).
Out of some 310,000 compounds screened, about 2,200 (0.71%) showed an effect of 50% or more. Effects have a minus sign here. The list shows a part of the results.

Target: human ether-à-go-go-related gene (hERG) potassium channel (human, UniProt Q12809)
Test: primary screen, population patch clamp on CHO cells stably expressing hERG

Sequence of human ether-à-go-go-related gene (hERG) potassium channel (Q12809 whole entry, looked up): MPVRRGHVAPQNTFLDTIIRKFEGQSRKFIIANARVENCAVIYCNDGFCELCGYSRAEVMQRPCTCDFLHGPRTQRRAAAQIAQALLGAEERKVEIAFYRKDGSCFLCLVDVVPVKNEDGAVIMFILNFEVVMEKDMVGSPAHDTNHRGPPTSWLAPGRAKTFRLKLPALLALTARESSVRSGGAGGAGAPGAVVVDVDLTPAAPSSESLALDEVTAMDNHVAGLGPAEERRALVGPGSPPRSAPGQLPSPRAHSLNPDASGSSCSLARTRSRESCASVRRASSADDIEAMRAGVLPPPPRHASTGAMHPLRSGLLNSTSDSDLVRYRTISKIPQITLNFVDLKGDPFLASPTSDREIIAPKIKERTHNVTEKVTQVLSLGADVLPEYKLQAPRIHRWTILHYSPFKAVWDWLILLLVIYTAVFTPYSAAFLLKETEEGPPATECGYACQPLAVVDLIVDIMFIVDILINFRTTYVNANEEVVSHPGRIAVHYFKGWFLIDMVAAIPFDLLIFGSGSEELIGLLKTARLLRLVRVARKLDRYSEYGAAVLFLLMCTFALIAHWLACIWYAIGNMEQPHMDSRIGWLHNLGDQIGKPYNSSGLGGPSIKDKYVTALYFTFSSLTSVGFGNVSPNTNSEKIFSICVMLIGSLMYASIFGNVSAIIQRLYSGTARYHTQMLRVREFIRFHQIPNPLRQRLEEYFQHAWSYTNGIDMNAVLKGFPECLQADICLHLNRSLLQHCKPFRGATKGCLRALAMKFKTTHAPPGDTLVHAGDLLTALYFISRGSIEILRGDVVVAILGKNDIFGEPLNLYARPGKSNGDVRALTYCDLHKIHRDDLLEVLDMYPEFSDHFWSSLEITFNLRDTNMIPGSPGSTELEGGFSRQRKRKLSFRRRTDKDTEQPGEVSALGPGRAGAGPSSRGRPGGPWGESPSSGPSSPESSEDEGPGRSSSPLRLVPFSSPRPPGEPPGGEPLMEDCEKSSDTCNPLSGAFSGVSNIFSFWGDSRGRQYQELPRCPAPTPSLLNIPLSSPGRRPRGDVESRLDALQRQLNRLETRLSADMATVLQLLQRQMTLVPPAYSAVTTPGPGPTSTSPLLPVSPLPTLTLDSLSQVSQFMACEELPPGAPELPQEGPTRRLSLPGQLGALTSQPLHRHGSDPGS

Row | SMILES | hERG current change (%, negative = inhibition) at 1uM
1 | CCN(CC)c1ccc(Nc2nc(N3CCOCC3)c3ccccc3n2)cc1 | -7.62%
2 | CC(=O)NCCCc1nc2ccccc2n1Cc1cc(C)ccc1C | 13%
3 | O=C(Nc1cc2c(ccc3ccccc32)oc1=O)C1CCCCC1 | -3.41%
4 | Cc1ccc(C(=O)CSc2nc(C)cc(SCc3nnc(-c4ccccc4)o3)n2)cc1 | 11.6%
5 | O=C(c1ccccc1)c1ccc(-c2ccc(O)cc2)cc1 | 8.08%
6 | CC(C)N(Cc1nc(-c2ccccc2)no1)C(=O)c1ccc2c(c1)OCO2 | -6.98%
7 | Cn1c2ccccc2c2c(C(=O)N3CCN(c4ccccc4)CC3)cn(C3CCCC3)c(=O)c21 | 7.5%
8 | O=c1c2cc3ccccc3n2cnn1Cc1ccccc1F | -3.7%
9 | O=C1Nc2ccc(Br)cc2C1Cc1ccccc1F (stereo not shown) | 9.99%
10 | Cc1nc(/N=C(\N)NC(=O)c2ccccc2)nc2ccccc12 | 5.27%
11 | Cc1ccc(NC(=O)NCCN2CCCCC2)cc1C | 1.9%
12 | CCOc1ccccc1NC(=O)/C=C/c1ccccc1[N+](=O)[O-] | -1.98%
13 | Cc1cc(Cl)ccc1OCC(=O)NCC(=O)N/N=C/c1ccco1 | 8.32%
14 | O=C1CCN(S(=O)(=O)c2ccc(Cl)cc2)CC1 | -0.748%
15 | COc1ccc2ccc(OCC(=O)N3c4ccccc4NC(=O)CC3C)cc2c1 (stereo not shown) | -4.14%
16 | COc1ccc(C(=O)Nc2sc(C)c(C)c2CN2CCOCC2)cc1 | 12.8%
17 | COc1ccc(NC(=O)CC2C(=O)N(C)C(=S)N2CCc2ccccc2)cc1 (stereo not shown) | 8.62%
18 | COc1cccc(/C=C/C(=O)OCC(=O)NC(=O)NC2CCCC2)c1 | 9.71%
19 | CCCCc1cc(=O)oc2cc(OCC(=O)N(CC)CC)ccc12 | 3.9%
20 | O=C1CC(N2CCN(C3CC(=O)N(CCc4ccccc4)C3=O)CC2)C(=O)N1CCc1ccccc1 (stereo not shown) | 7.64%
21 | COc1ccc(CC(=O)NN2C(=O)c3ccccc3C2=O)cc1 | 6.7%
22 | O=C(O)[C@@H]1CCCN1c1ncnc2sc3c(c12)CCC3 | -1.36%
23 | CCC1CCCCN1CCCNC(=O)c1cc2c(=O)[nH]c3ccccc3c2n1C (stereo not shown) | 8.22%
24 | COc1cccc(CN(C)C(=O)c2cccc(NC(=O)CC3SC(N4CCCCC4)=NC3=O)c2)c1OC (stereo not shown) | 9.32%
25 | N#Cc1cc(C#N)c(SCC(=O)NCC2CCCO2)nc1N (stereo not shown) | 12.1%
